Test results from PubChem BioAssay AID2147 (National Center for Advancing Translational Sciences (NCATS), 2009).
Hit rate of the full screen: of about 230,000 compounds, about 3,600 (1.6%) were called active. Inconclusive means that the source gave no clear call. Such entries were picked first, then a sample of the others. Calls follow the shape of the dose curve; as a rule, active = well fitted inhibition curve with a large enough effect (not every such curve was filed as active); inconclusive = small, poorly fitted or top-dose-only effect, or another doubt; inactive = no such curve, though single readings can be large or run the other way. Potencies beside an inconclusive call are fits to weak or partial responses and may not hold up.

target: Lysine-specific demethylase 4E (Homo sapiens) (UniProt B2RXH2); test: qHTS Assay for Inhibitors of Human Jumonji Domain Containing 2E (JMJD2E); settings: JMJD2E catalytic domain, FDH-coupled NADH fluorescence (FDH is formaldehyde dehydrogenase); series mostly up to 57.1 µM; activity change, negative = inhibition: at the top concentration
Chain of UniProt B2RXH2 (B2RXH2 whole entry, looked up, the tested form may be a part): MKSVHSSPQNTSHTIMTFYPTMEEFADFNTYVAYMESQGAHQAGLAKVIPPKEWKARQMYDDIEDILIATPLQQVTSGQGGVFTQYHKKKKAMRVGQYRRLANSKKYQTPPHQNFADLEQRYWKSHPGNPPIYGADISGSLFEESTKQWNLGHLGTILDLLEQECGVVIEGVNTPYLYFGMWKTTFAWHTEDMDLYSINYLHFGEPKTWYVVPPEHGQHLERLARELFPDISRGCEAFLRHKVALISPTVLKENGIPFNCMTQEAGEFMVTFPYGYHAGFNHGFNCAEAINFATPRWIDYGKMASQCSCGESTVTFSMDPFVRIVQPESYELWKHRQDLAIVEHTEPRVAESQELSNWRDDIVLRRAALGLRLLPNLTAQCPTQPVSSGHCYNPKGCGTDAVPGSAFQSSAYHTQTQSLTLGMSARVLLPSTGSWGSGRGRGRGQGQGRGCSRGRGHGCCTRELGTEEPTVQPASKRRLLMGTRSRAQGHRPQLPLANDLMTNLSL
Also: nearly all actives have a fitted effect of over 50% in size.
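For activity change, negative = inhibition in this document: 0% = wells with enzyme and -100% = buffer wells without enzyme.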
Potency is read from the fitted curve at half-maximal effect; tags tell the direction and shape of the fitted curve.

| Structure (SMILES) | Potency | activity change, negative = inhibition |
| --- | --- | --- |
| Cc1cccc(-n2ncc3c(NC(C)C)ncnc32)c1 | inconclusive: 35.5 µM [inhibitor, single point] |  |
| Cc1nc2ccccn2c1C(=O)N/N=C/c1cc(C)n(-c2ccc(Br)cc2)c1C | inconclusive: 39.8 µM [inhibitor, single point] |  |
| COc1ccc(Cn2nnnc2C(c2ccccc2OC)N2CCC(C(N)=O)CC2)cc1 (centres undefined) |  | inactive: -1.37% |
| CCCCNC(=S)N(C)/N=C/c1ccc(F)cc1 |  | inactive: -2.76% |
| Cc1cc(C)c(C(=O)Nc2ccccc2)c(CC(C)(C)C(=O)O)c1 |  | inactive: 7.38% |
| COc1ccc(/C=N/NC(=O)CN(c2ccc(OC)cc2)S(=O)(=O)c2ccccc2)cc1 |  | inactive: -9.7% |
| O=c1cc(-c2ccccc2Cl)c2c([nH]1)CCC2 |  | inactive: 0.085% |
| COc1ccccc1NC(=O)Nc1nn(C)c2cccc(N(C)C)c12 | inconclusive: 28.2 µM [inhibitor, partial curve] |  |
| O=C(CSc1nc2cc(Cl)ccc2o1)N1CCOCC1 |  | inactive: 4.39% |
| CC(C)Oc1cccc(C(=O)C2CCCN(C(=O)CCn3cnnn3)C2)c1 (centres undefined) | inconclusive: 11.2 µM [inhibitor, partial curve] |  |
| Cc1ccc(SCC(=O)NCCN2C(=O)CSC2=O)cc1C |  | inactive: -8.76% |
| COc1ccc(Cn2c(N)c(C#N)c3nc4ccccc4nc32)cc1OC | inconclusive: 25.1 µM [inhibitor, partial curve] |  |
| COC(=O)c1ccc(C2=NOC(C)(c3sc(-c4ccccc4)nc3C)C2)cc1 (centres undefined) |  | inactive: -15.9% |
| COc1cc(-c2nc(N)n[nH]2)cc(OC)c1OC | inconclusive: 28.2 µM [inhibitor, single point] |  |
| Cc1[nH]nc(-c2ccc(OCc3cnn(-c4ccccc4)c3)cc2O)c1Oc1ccc(F)cc1 | inconclusive: 39.8 µM [inhibitor, single point] |  |
| COCCn1c(C)cc(C(=O)COC(=O)c2ccc([N+](=O)[O-])o2)c1C |  | inactive: 1.86% |
| CCCCCn1c(=O)[nH]c2cc(C(=O)O)ccc2c1=O | inconclusive: 22.4 µM [inhibitor, partial curve] |  |
| CCOC(=O)c1oc2nc(CC(C)C)c3c(c2c1N)CCC3 | inconclusive: 25.1 µM [inhibitor, partial curve] |  |
| COc1cc2c(C)nc(C)c(C#N)c2cc1OC | inconclusive: 39.8 µM [inhibitor, single point] |  |
| c1ccc(COc2cccc(CNCc3cccnc3)c2)cc1 |  | inactive: -11.1% |
| O=C(CSc1nccn1-c1cccc(Cl)c1)NC1CCCC1 |  | inactive: -6.05% |
| CCOc1nc(-c2ccccc2)ccc1-c1noc(COc2ccccc2)n1 | inconclusive: 35.5 µM [inhibitor, partial curve] |  |
| CSc1nc2ccc(NC(=O)c3ccc(Cl)s3)cc2s1 | inconclusive: 35.5 µM [inhibitor, single point] |  |
| Cc1ccc(S(=O)(=O)Cn2nnnc2C(C(C)C)N2CCc3ccccc3C2)cc1 (centres undefined) | inconclusive: 35.5 µM [inhibitor, single point] |  |
| CCOC(=O)Cc1c(C)nc2cc(-c3ccc(Cl)cc3)[nH]n2c1=O | inconclusive: 8.91 µM [inhibitor, full curve] |  |

| Structure (SMILES) | Potency | activity change, negative = inhibition |
| --- | --- | --- |
| Oc1nc(Nc2ccc(Cl)cc2Cl)sc1/C=C1\C=Nc2ccccc21 |  | inactive: 0.783% |
| CCCc1cc(=O)c2c(O)ccc(OC)c2o1 | inconclusive: 35.5 µM [inhibitor, single point] |  |
| Cc1ccccc1NC(=O)c1nc[nH]c1C(=O)NCc1ccccc1 | inconclusive: 35.5 µM [inhibitor, single point] |  |
| Cc1ccc(NC(=O)CNc2ccc(N3CCOCC3)cc2)cc1S(=O)(=O)N(C)C |  | inactive: -3.04% |
| CCCOc1ccc(N)cc1N | inconclusive: 0.562 µM [inhibitor, full curve] |  |
| O=C(CC1C(=O)NCCN1Cc1ccc(-c2ccccc2)cc1)NCCc1ccccn1 (centres undefined) | inconclusive: 39.8 µM [inhibitor, single point] |  |
| CN1CCN(C(=S)NC(=O)c2cccc(S(=O)(=O)N(C)C)c2)CC1 |  | inactive: 4.79% |
| Cc1sc(NC(=O)c2ccco2)c(CN2CCN(Cc3ccccc3)CC2)c1C | inconclusive: 35.5 µM [inhibitor, single point] |  |
| CCn1c(C)c(C(C)=O)c(N2CCN(c3cccc(Cl)c3)CC2)nc1=S | inconclusive: 35.5 µM [inhibitor, single point] |  |
| COc1ccc(OC)c(C(=O)CSc2nnc(Cc3cccs3)n2C)c1 | inconclusive: 39.8 µM [inhibitor, single point] |  |
| O=C(N/N=C/c1ccc(N2CCOCC2)cc1)C1COc2ccccc2O1 (centres undefined) | inconclusive: 31.6 µM [inhibitor, partial curve] |  |
| Cc1nc2ccc(N=NN(C)C)cc2[nH]1 | inconclusive: 20 µM [inhibitor, single point] |  |
| COc1cc(/C=C2/SC(=S)NC2=O)ccc1OS(=O)(=O)c1ccc(C)cc1 |  | inactive: 3.35% |
| N/C(=N\OS(=O)(=O)c1ccccc1)c1ccccn1 | inconclusive: 17.8 µM [inhibitor, partial curve] |  |
| O=C(Cc1ccccc1)NNC(=O)C1CCN(c2ncccn2)CC1 | inconclusive: 25.1 µM [inhibitor, partial curve] |  |
| O=S(=O)(NCc1ccc(Cl)cc1Cl)c1ccc(N2CCOCC2)nc1 |  | inactive: -22.1% |
| COC1=CC(=O)C(C(=O)c2ccccc2)=CC1=O | inconclusive: 7.94 µM [inhibitor, partial curve] |  |
| COc1ccc2cc(-c3cc(C(=O)O)c4ccccc4n3)ccc2c1 | inconclusive: 35.5 µM [inhibitor, single point] |  |
| COC(=O)c1sccc1NC(=O)CSc1ccc(Cl)cc1 |  | inactive: 2.98% |
| Cc1ccccc1/C=N/Nc1ccc(Cl)nn1 | inconclusive: 39.8 µM [inhibitor, single point] |  |
| Nc1ccc(C(=O)c2cccs2)cn1 |  | inactive: -6.1% |
| N#Cc1ccc(C(=O)N/N=C/c2cn(CC(=O)O)c3ccccc23)c(F)c1 | inconclusive: 10 µM [inhibitor, partial curve] |  |
| COc1ccccc1C(=O)N/C(=C\c1ccccc1)C(=O)NC(C)C(=O)O (centres undefined) |  | inactive: 0.111% |
| NS(=O)(=O)c1ccc(Nc2ccc3nonc3c2[N+](=O)[O-])cc1 |  | inactive: 1.88% |
